Scores whose standard error is large were omitted. Two further conditions of the source, in which the scores hardly spread, are not listed. In variant names, del marks residues removed and ins residues inserted between the two positions. For some assays here: The data file names ogerin without a concentration.
B1: GPR68, Q15743 (parent)
chain: MGNITADNSSMSCTIDHTIHQTLAPVVYVTVLVVGFPANCLSLYFGYLQIKARNELGVYLCNLTVADLFYICSLPFWLQYVLQHDNWSHGDLSCQVCGILLYENIYISVGFLCCISVDRYLAVAHPFRFHQFRTLKAAVGVSVVIWAKELLTSIYFLMHEEVIEDENQHRVCFEHYPIQAWQRAINYYRFLVGFLFPICLLLASYQGILRAVRRSHGTQKSRKDQIQRLVLSTVVIFLACFLPYHVLLLVRSVWEASCDFAKGVFNAYHFSLLLTSFNCVADPVLYCFVSETTHRDLARLRGACLAFLTCSRTGRAREAYPLGAPEASGKSGAQGEEPELLTKLHPAFQTPNSPGSGGFPTGRLA

What was measured:
[1] = variants of: B1; experiment: cAMP reporter score (Enrich2 score, wild type = 0); higher = more signal; HEK293T, FACS bins
[2] = variants of: B1; experiment: surface expression score (Enrich2 score, wild type = 0); higher = more signal; HEK293T, FACS bins

Variant	cAMP reporter score ([1]; pH 5.5)	cAMP reporter score ([1]; pH 6.5, modulator: ogerin)	surface expression score [2]	cAMP reporter score ([1]; pH 6)	cAMP reporter score ([1]; pH 6, modulator: ogerin)
F173E	-1.15	-1.77	-1.65		
F173G	-0.584	-0.381	0.165	-1.06	-1.38
F173H	-0.216	-0.868	0.236	-0.457	
F173I	-0.866	-0.952	-0.239	-0.562	-0.833
F173K	-0.798	-1.34	-0.474		-1.14
F173L	-1.32	-1.12	-1.22	-1.08	-1.68
F173M	-1.73	-0.916	0.12	-1.75	-1.74
F173P	-1.88	-1.35	-0.981	-1.31	-0.826
F173Q	-0.703	-0.599	-0.433	-0.243	-1.33
F173S	-1.53	-1.31	-0.432	-0.705	-1.42
F173T	-1.49	-1.51	-0.351	-1.26	
F173V	-1.46	-1.21	-0.251	-1.1	-1.72
F173W	0.338	1.52	0.687	1.76	1.03
F173Y	0.044	-1.25	0.375	-0.259	-1.29
F173_E174del	-1.8	-1.31	-2.03	-1.28	-1.43
H175A	0.464	-0.151	0.508	0.165	-0.766
H175D	-1.62	-1.56	-0.495	-0.497	-1.41
H175F	-0.042	-0.605	1.08	-0.141	-0.451
H175G	-1.23	-1.41	0.149	-1.59	-1.25
H175I	-2.17	-1.96	-0.889	-0.923	-2.12
H175K	-0.343	1.86	0.529		0.281
H175L	-0.576	-0.862	0.021	-0.355	-0.857

Variant	cAMP reporter score ([1]; pH 5.5)	cAMP reporter score ([1]; pH 6.5, modulator: ogerin)	surface expression score [2]	cAMP reporter score ([1]; pH 6)	cAMP reporter score ([1]; pH 6, modulator: ogerin)
H175M	-1.12	-1.94	1.56	-1.39	-1.51
H175N	-0.894	-1.1	0.157	-0.466	-1.48
H175Q	-0.745	-0.267	0.263	-0.55	-1.34
H175R	-0.205	0.732	-0.395	0.168	-0.345
H175S	0.274	-0.412	0.248		0.279
H175V	-0.569	-0.795	0.527		
H175W	-1.62	-0.613	0.498	-2.05	-0.406
H175Y	-0.667	-0.644	-0.271	-0.272	-0.915
H175_Y176insG	-0.791	-1.68	0.243	-0.774	-1.1
H175_Y176insGSG	-1.29	-0.936	0.609	-1.16	-1.74
Y176_P177del	-1.07		-2.58	0.174	-1.59
Y176_P177insGS	-1.74	-2.11	-1.76	-1.23	-1.19
I178_Q179insGS	-0.892	-0.794	-1.1	-0.675	
Q179_A180insG	-0.327	-1.7	-0.616	-0.964	-0.874
Q179_A180insGS	-1.59	-0.822	-1.05	-0.771	-1.05
Q179_A180insGSG	-1.39			-0.772	-1.16
A180_W181del	0.117	-0.449	-1.18	-0.941	-0.966
W181_Q182insGS	-0.833	-0.884	-1.49	-0.975	-1.05
Q182_R183del	-1.11	-1.05	-2.44	-1.67	-1.8
A184_I185insGSG	-0.356	-1.36	-1.63	-0.988	-2.27
A184del	-1.78	-1.2	-1.37	-1.14	-1.48
N186_Y187insGSG	-1.9	-1.61	-1.2	-1.65	-1.74

Variant	cAMP reporter score ([1]; pH 5.5)	cAMP reporter score ([1]; pH 6.5, modulator: ogerin)	surface expression score [2]	cAMP reporter score ([1]; pH 6)	cAMP reporter score ([1]; pH 6, modulator: ogerin)
Y188_F190del	-1.58	-1.17	-2.51	-1.22	
R189_F190insGSG	-1.29	-1.09	-2.06	-1.62	-1.15
R189_L191del	-0.931	-1.31	-1.99	-1.92	-1.75
F190_L191del	-1.87	-1.58	-2.02	-1.03	-2.47
F190_L191insGS	-1.6	-1.5	-2.38	-0.655	-1.93
F190del	2.48	0.137	-1.84		0.92
V192_F194del	-0.244	-2.08	-1.96		-1.46
G193_F194del	-1.48	-1.09	-2.28	-0.968	-1.22
G193_F194insGS	-0.663	-1.87	-2.72	-1.6	-1.1
F194_L195insGS	-2.11	-0.936	-3.06	-0.034	-0.722
F194del	-1.46	-0.564		1.09	-0.627
L195_F196insGSG	-1.59	-1.31		-1.12	-2.19
L195del	-1.4	-0.473		-1.04	-1.49
F196_P197insG	0.009	-0.812	-2.38	-1.1	
F196_P197insGS	-0.049	0.57	-2.56	1.33	-0.759
F196del	-1.17	-1	-2.16	-0.913	-2.85
P197_C199del	-1.02	-1.55	-2.24	-1.53	-1.88
P197del	-1.28	-0.575	-1.67		-1.35
I198_C199insG	-1.41	-1.03	-1.97	-1.08	-1.38
I198_C199insGS	-1.46	-1.27	-2.31	-1.27	-1.78

From the GPR68 mutational scans of Howard et al. (2025)
